# Source: PubChem BioAssay AID1240 (Sanford-Burnham Center for Chemical Genomics, 2008)
# In all, about 50,000 compounds went through this assay and about 800 (1.6%) showed an effect of 50% or more. This is one part of the list.
# Molecular target: Bcl-2-like protein 10 (Homo sapiens) (UniProt Q9HD36)
# Test: TR3 peptide-Bcl-B binding displacers, biochemical primary FP assay, phenotype converters (AID 1240);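 further: 0% = Bcl-B with tracer peptide and DMSO and 100% = tracer peptide lacking Bcl-B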
# Details: GST-Bcl-B / FITC-TR3 peptide fluorescence polarization; stronger effect = higher value; compound at 3.75 mg/L
# Chain of UniProt Q9HD36 (Q9HD36 whole entry, looked up): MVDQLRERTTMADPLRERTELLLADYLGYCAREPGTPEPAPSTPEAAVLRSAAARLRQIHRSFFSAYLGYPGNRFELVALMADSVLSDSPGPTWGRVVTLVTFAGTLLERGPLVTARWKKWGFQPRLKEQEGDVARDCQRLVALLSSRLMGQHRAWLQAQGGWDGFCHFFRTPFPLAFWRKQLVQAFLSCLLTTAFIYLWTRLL
row,SMILES,displacement
1,O=C1CC(N(Cc2ccc3c(c2)OCO3)C(=S)Nc2ccccc2)C(=O)N1c1ccc(Cl)cc1 (stereo not given),-2.1%
2,CCOC(=O)c1ccc(NC(=O)C(=O)NCCOC)cc1,-2.9%
3,COc1cc2c(cc1NC(=O)CCN1C(=O)c3ccccc3C1=O)oc1ccccc12,4.6%
4,C=CCc1cc(/C=C2\C(=O)NC(=O)N(c3ccc(C)cc3)C2=O)cc(OC)c1OCC(=O)OC,-0.2%
5,O=C(O)C1CCCCC1C(=O)Nc1nc(-c2ccc([N+](=O)[O-])cc2)cs1 (stereo not given),-5.4%
6,O=C(Cc1ccc(Cl)cc1)N/N=C/Cc1ccccc1,4.7%
7,CCN(CC)C(=O)CSc1nc2ccc([N+](=O)[O-])cc2s1,4.3%
8,COc1ccc(C(=O)NNC(=O)c2ccccc2OC)cc1OC,0%
9,COc1ccc(N2C(=O)/C(=C\c3cc4c(cc3[N+](=O)[O-])OCO4)SC2=S)cc1,10%
10,CC(C)CC(=O)NC(NC(=O)CC(C)C)c1ccccc1,1%
11,C=CCN1C(=O)CSC1=Nc1ccc(C(=O)O)cc1,-2.4%
12,CC(=O)c1ccc(NC(=S)NC(NC(=O)c2ccccc2)C(Cl)(Cl)Cl)cc1 (stereo not given),-5.8%
13,COc1cc(NS(=O)(=O)c2ccc(C)cc2)cc(OC)c1O,13.5%
14,CCC(C(=O)Nc1cc(C)on1)c1ccccc1 (stereo not given),3.2%
15,COc1cccc(N2C(=O)/C(=C/C(C)=C/c3ccccc3)SC2=S)c1,0.4%
16,O=C(CSCC(=O)Nc1ccc2ccccc2c1)NCc1ccccc1,12.2%
17,O=C1c2ccc(Oc3ccc([N+](=O)[O-])cc3)cc2C(=O)N1c1cccc(-c2nc3ccccc3o2)c1,-3.8%
18,N#Cc1ccccc1NC(=O)Nc1cccc(Cl)c1,18.9%
19,CCc1ccc(-n2c(C)cc(/C=N/NC(=O)c3ccncc3)c2C)cc1,-35.3%
20,COc1ccc2oc(=O)c(C(=O)Nc3ccc(S(N)(=O)=O)cc3)cc2c1,10.9%
21,CC(C)c1nnc(NC(=O)CSc2ncn[nH]2)s1,9.4%
22,Cc1cccc(OCC(=O)n2cnnc2N)c1,11.4%

row,SMILES,displacement
1,Cc1ccc(-n2nc3cc(C)c(NC(=O)c4ccc([N+](=O)[O-])cc4)cc3n2)cc1,-1.5%
2,COc1ccc(CCNC(=O)c2sc3cc(C)ccc3c2Cl)cc1OC,-4.3%
3,CCOC(=O)c1c(C)[nH]c(C)c1-c1ccccc1Cl,5.8%
4,CCCc1cc(=O)oc2cc(OCc3cccc(Cl)c3)ccc12,-0.7%
5,COc1ccc(NC(=O)c2ccc(CN(c3cc(Cl)ccc3C)S(=O)(=O)c3ccccc3)cc2)c(OC)c1,10.8%
6,CC(=O)Nc1ccc2sc(C)nc2c1,12.9%
7,O=C(N/C(=C\c1cccnc1)C(=O)N1CCNCC1)c1ccccc1,-0.3%
8,CC(=O)c1ccc(N2C(=O)CC(N3CCN(c4ccccn4)CC3)C2=O)cc1 (stereo not given),-0.9%
9,Cc1ccc(NC(=O)c2cc(-c3cccs3)nc3ccccc23)cc1,2.6%
10,C=CCc1cccc2cc(C(=O)NC3=C(C#N)CCC3)c(=O)oc12,-6.2%
11,COc1cc(/C=C2/S/C(=N\S(=O)(=O)c3ccccc3)NC2=O)ccc1O,-23.7%
12,OC(CCOc1cccc2ccccc12)CN1CCN(CC(O)COc2cccc3ccccc23)CC1 (stereo not given),-1%
13,CCN(CC)CCCCCOc1ccc(Cl)cc1,10%
14,O=C(c1ccccc1)c1ccc(C(=O)N2CCN(c3ccc(F)cc3)CC2)o1,-8.1%
15,NC(=O)NC(Cc1c[nH]c2ccccc12)C(=O)O (stereo not given),8.6%
16,Cc1cc([N+](=O)[O-])ccc1N/C=C/C(=O)c1ccc(Cl)c(Cl)c1,36.3%
17,O=C1CCCc2c1[nH]c1ccc(C34CC5CC(CC(C5)C3)C4)cc21,13%
18,O=C(c1cccc(Cl)c1)N1CCN(Cc2cccnc2)CC1,-3.6%
19,Cc1ccc(/C=C2\SC(=S)N(CCC(=O)Nc3ccc(S(N)(=O)=O)cc3)C2=O)cc1,7.1%
20,C=CCn1c(SCC(=O)NCc2cccnc2)nc2sc(C)c(C)c2c1=O,1.4%
21,O=C/C(=C\Nc1ccc(S(=O)(=O)CCO)cc1)c1nc2ccccc2o1,9.7%
22,COc1ccc(C2NC(=O)NC(O)(C(F)(F)F)C2C(=O)c2ccc(Br)cc2)cc1 (stereo not given),12.2%

row,SMILES,displacement
1,Clc1ccc(/C=N/Nc2nc3ccccc3s2)c(Cl)c1,16.9%
2,O=C(N/C(=C/c1cccs1)c1nc2ccccc2[nH]1)c1ccccc1,10.1%
3,CCC(C)c1ccc(NC(=O)c2ccc3c(c2)OCCO3)c(O)c1 (stereo not given),2.4%
4,Cc1ccc(C(=O)O/N=C(\N)c2ccc(Cl)cc2)cc1[N+](=O)[O-],1.3%
5,COc1ccc(Cl)cc1NC(=O)c1nn2c(c1Cl)NC(c1cccs1)CC2C(F)(F)F (stereo not given),-1.8%
6,CCc1nc2ccccc2c(NC(=O)CNC(C)(C)CC(C)(C)C)c1C,-10.1%
7,CCCCN(C)C(=O)c1ccc(C(=O)N(C)CCCC)cc1,-3.6%
8,CCOc1ccc(C(=O)N2CCN(Cc3ccccc3)CC2)cc1,12.4%
9,O=C(NC1CCCCC1)ON=C(c1ccccc1)c1ccccc1,12.4%
10,O=C(COc1ccc(Cl)cc1)NNC(=O)c1ccccc1[N+](=O)[O-],-3.5%
11,COc1ccc(C(=O)NCCOc2ccc(C)cc2)cc1OC,6.1%
12,O=C(CSc1ncn[nH]1)Nc1cccc(C(F)(F)F)c1,1.1%
13,Cc1ccc(OCC(=O)Nc2ccccc2-c2ccccc2)c(Br)c1,-6%
14,CC(=O)c1ccc(NC(=O)c2cc(S(=O)(=O)N3CCOCC3)ccc2Cl)cc1,-8.5%
15,CCCC1C(=O)CC(c2ccccc2)N(C)C1c1ccccc1 (stereo not given),6.8%
16,Oc1ccc2ccccc2c1CN1CCOCC1,16.6%
17,CC1=C(C(=O)c2ccccc2)C(c2ccc([N+](=O)[O-])cc2)NC(=O)N1 (stereo not given),-11.6%
18,CCN(CC)C(=O)c1c(NC(=O)c2ccc([N+](=O)[O-])cc2)sc2c1CCCCC2,4.6%
19,CC(C)=N/N=C1/NC(=O)C(CC(=O)Nc2cc(Cl)ccc2C)S1 (stereo not given),-13.5%
20,COc1cc(C=O)ccc1OCc1ccccc1COc1ccc(/C=C2/SC(=S)NC2=O)cc1OC,12.7%
21,C=CCOc1cccc(/C=N/NS(=O)(=O)c2ccc(Cl)cc2)c1,7.1%
22,CCOc1cc(/C=C2\C(=O)NC(=O)N(c3ccc(Cl)cc3)C2=O)c(Br)cc1OC,-49.7%

row,SMILES,displacement
1,C=CCn1cc(F)c(=O)n(CC=C)c1=O,12.4%
2,O=S(=O)(NCc1ccc(F)cc1)c1ccccc1,-18.5%
3,O=C(Nc1ccc(Cl)c([N+](=O)[O-])c1)c1ccc(-c2ccccc2)cc1,0.1%
4,Cc1ccc(N(CC(=O)N2CCOCC2)S(C)(=O)=O)cc1,2.4%
5,Cc1cccc(C(C)C)c1NC(=O)CCCOc1ccc(Cl)cc1Cl,12.8%
6,O=C(Nc1cccc(Cl)c1)c1cccc(NC(=O)c2cccs2)c1,-1.3%
7,Oc1ccc(-c2cn3ccccc3n2)cc1O,23.6%
8,CC(=O)Nc1cc(C(N)=O)c(Cl)cc1Cl,-9.1%
9,COc1cc(CN2CCN(C3C4CC5CC(C4)CC3C5)CC2)cc(OC)c1OC (stereo not given),2%
10,Cc1ccc(Cl)cc1NC(=O)c1cncc(Br)c1,11.1%
11,O=C(Nc1cccc2ccccc12)C1C2CCC3C(CCC21)C3(Cl)Cl (stereo not given),0.2%
12,CCC(Oc1ccccc1)C(=O)N1CCN(C(=O)C(CC)Oc2ccccc2)CC1 (stereo not given),8.9%
13,O=C(Cc1ccc(-c2ccccc2)cc1)NNC(=O)c1ccco1,-13.5%
14,O=C(c1cccc(Cl)c1)N1CCN(c2ccccn2)CC1,-8%
15,O=C1C(=O)N(c2cccnc2)C(c2ccc(Cl)cc2)/C1=C(\O)c1ccc(Cl)cc1 (stereo not given),1%
16,Cc1ccccc1CC1S/C(=N\N=C\c2ccc(N(C)C)cc2)NC1=O (stereo not given),18.1%
17,CC(C)CCSc1nc2ccccc2[nH]1,10.5%
18,CCOCCOC(=O)C1=C(C)NC2=C(C(=O)CC(C)(C)C2)C1c1cccc(Cl)c1Cl (stereo not given),3.1%
19,O=C(Nc1c[nH]c(=O)[nH]c1=O)c1ccc2c(c1)C(=O)N(c1ccccc1-c1ccccc1)C2=O,19.1%
20,Cc1ccc(N(CC(=O)NCCSc2ccccn2)S(=O)(=O)c2ccc(F)cc2)cc1,2.7%
21,Cc1cccc(NC(=O)CN(c2ccc(Br)cc2)S(=O)(=O)c2ccccc2)c1C,-1.1%
22,CN1C(c2ccccc2)CC(O)(c2ccccc2)CC1c1ccccc1 (stereo not given),12.8%

row,SMILES,displacement
1,O=C(Nc1c(-c2cccs2)nc2ccc(Cl)cn12)c1ccc(Cl)cc1,6.7%
2,CCOc1cc(C(=O)Nc2ccc(N3CCN(C(C)=O)CC3)cc2)cc(OCC)c1OCC,6.9%
3,CCOc1ccc(C(=O)Nc2cc(C(=O)O)cc(C(=O)O)c2)cc1,-9.1%
4,COc1cc(/C=C2/C(C)=C(C#N)c3nc(N)c(C#N)c(C)c32)ccc1O,19.6%
5,CCCCNCCCCCOc1c(Cl)cccc1Cl,13.1%
6,Cn1cnc2c1c(=O)n(Cc1ccccc1F)c(=O)n2C,7.5%
7,O=C(/C=C1/Nc2ccccc2NC1=O)Nc1cccc(C(F)(F)F)c1,8.5%
8,COc1ccc(/C=C/C(=O)c2ccc3c(c2)OCCO3)c(OC)c1,-6.7%
9,COc1ccc(NC(=O)c2c(Cl)ccc(Cl)c2OC)c(OC)c1,1.7%
10,NC(=O)c1ccccc1NC(=O)c1ccccc1I,11.5%
11,Cc1ccccc1-c1cc(C(=O)N2CCOCC2)c2ccccc2n1,4%
12,O=C(CC(c1ccccc1)c1ccccc1)N1CCCCC1,-7.2%
13,Cc1ccc(OCC(=O)Nc2ccc3c(c2)OCO3)c(Br)c1,8.7%
14,CCOC(=O)c1c(N)c(C#N)n2c1CCC2,3.7%
15,Cc1ccc(NC(=O)/C(C#N)=C\c2cc(Br)cc(Br)c2O)c(C)c1,2%
16,O=C(c1ccccc1I)N1CCN(c2ccc(F)cc2)CC1,-6.4%
17,CCOC(=O)C1C(=O)C=C(c2ccc(OC)cc2)CC1c1ccccc1 (stereo not given),0.4%
18,COc1ccc(S(=O)(=O)NC2CCCCC2)cc1Br,3.5%
19,COC(=O)c1c(NC(=O)C2CC=CCC2C(=O)O)sc2c1CCC(C)C2 (stereo not given),-10.4%
20,O=C(Nc1nc(-c2ccc3ccccc3c2)cs1)c1cc(Cl)ccc1Cl,-5.9%
21,Cc1ccc(C(=O)/C=C/c2ccc(-c3cccc(Cl)c3)o2)cc1,-38.8%
22,CS(=O)(=O)c1ccc2nc(NC(=O)c3ccccc3)sc2c1,10.7%
